The data set has as its system ATP. Kind of data set: switch fluorescence ratio, 500 uM ATP over buffer (Cy3 cluster intensity, sum of 5 cycles each) (fold (ratio)); higher = stronger signal-on switching upon ATP binding; sequences stand for … in TCGTCGGCAGCGTCAGATGTGTATAAGAGACAGTTTTTTTTTTTTTTTTTTTTTTTTT…TC. The settings on record: aptamer strand: ATP DNA aptamer (quencher-CACCTGGGGGAGTATTGCGGAGGAAGG + anchor), 100 nM annealed; ATP concentration: 500 uM; one replicate. In short, it runs like this:
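Clusters carrying Cy3-labelled switching strands on a modified Illumina MiSeq flow-cell were annealed to 100 nM quencher-labelled ATP aptamer and imaged in selection buffer. They were imaged again after 15 min with 500 uM ATP at 22 °C, over five buffer/ATP cycles with NaOH stripping and re-annealing in between. For each cluster, the fluorescence ratio is the summed Cy3 intensity of the target cycles divided by that of the buffer cycles, averaged per switch-domain sequence. Clusters outside 100-1000 RFU were left out.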

Values marked as one replicate rest on one cluster of the flow cell; about a third of the high ones do not repeat.
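Further: ATP exposure 15 min at 22 °C before imaging.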

With TTTTGCATGT, the switch fluorescence ratio is 1.02.

For the sequence GATTTGACTT, the switch fluorescence ratio amounted to 0.997.

With TGGGTCTACG, the switch fluorescence ratio stood at 1.01.

For the sequence GGCTAGATTT, the switch fluorescence ratio was 1.06.

As for CGACCCAAA, the switch fluorescence ratio was 1.15.

Take ATGACCCGTT: the switch fluorescence ratio was determined as 1.01.

AATGCCCATA: the switch fluorescence ratio was 1.02.

In the case of TCTGGTTGAC, the switch fluorescence ratio turned out to be 1.01.

As to TATCAGTGTG, the switch fluorescence ratio is 1.03.

Turning to ATGAAGAATC, the switch fluorescence ratio turned out to be 0.966.

On to CGTATCGTTG, for which the switch fluorescence ratio was found to be 0.985.

Regarding TTAAGAGACT, the switch fluorescence ratio was 0.98.

In the case of CTGTTGATAG, the switch fluorescence ratio worked out at 1.03.

CATGGACCTT: the switch fluorescence ratio came out at 0.964.

Turning to TTCAGGTAGT, the switch fluorescence ratio was found to be 0.958.

In the case of AGCATGTCGA, the switch fluorescence ratio was determined as 1.08.

Take AGTCTGGCCG: the switch fluorescence ratio was 1.04.

Turning to CCTGCGGTAT, the switch fluorescence ratio came to 1.71.

With ATACGGGCGT, the switch fluorescence ratio is 0.998.

TATATGTAGT: the switch fluorescence ratio was 0.986.

As to GGAAAACGTA, the switch fluorescence ratio worked out at 0.995.

Consider ATTAGGTAGC, for which the switch fluorescence ratio is 1.01.

Take GCTATGAGGT: the switch fluorescence ratio was determined as 1.02.

On to AAGGGGAGCC, for which the switch fluorescence ratio was 1.01.

For AAAGCGGCCC, the switch fluorescence ratio stood at 1.04.

As to GGCTTGGTCG, the switch fluorescence ratio is 0.992.

For the sequence GGCTCAGTTG, the switch fluorescence ratio stood at 1.18.

For TAGCGTAGGC, the switch fluorescence ratio came to 1.04.

On to TCTTGCTTGG, for which the switch fluorescence ratio is 0.995.

Take ATCTTCTCAC: the switch fluorescence ratio came out at 1.07.

As to GAGTGATCAA, the switch fluorescence ratio was found to be 0.999.

Consider ATCCTTGTGA, for which the switch fluorescence ratio is 1.01.

With AACGAAAGCG, the switch fluorescence ratio was 1.06.

For GCTCATTGTG, the switch fluorescence ratio is 0.968.

As for TAGTCAGCCC, the switch fluorescence ratio turned out to be 0.99.

As for TCTTATAGT, the switch fluorescence ratio was 1.02.

With ACACTTAAC, the switch fluorescence ratio amounted to 1.13.

With GGGGCCTACC, the switch fluorescence ratio was found to be 1.02.

On to TATGTTGAGA, for which the switch fluorescence ratio stood at 1.01.

Take AACGTATGCA: the switch fluorescence ratio came out at 1.04.

In the case of CAAGCTAGCT, the switch fluorescence ratio was 0.979.

Consider GCAGAGAATT, for which the switch fluorescence ratio came out at 0.97.

As to TTCACGTTCT, the switch fluorescence ratio stood at 1.03.

Regarding GCCGGTTTCC, the switch fluorescence ratio was found to be 0.977.

For TTCTAAGTG, the switch fluorescence ratio turned out to be 1.02.

CTAGGTAAC: the switch fluorescence ratio amounted to 1.

As for TTTCTGCGGT, the switch fluorescence ratio amounted to 1.48.

Turning to GGCAGGACGT, the switch fluorescence ratio came out at 1.03.

For the sequence CACAGGGAAG, the switch fluorescence ratio worked out at 0.992.

With ATCAGTCGAG, the switch fluorescence ratio was 0.97.

In the case of AGTGTAAAAG, the switch fluorescence ratio was 1.03.

Regarding ATTCCCGATC, the switch fluorescence ratio was 1.08.

AGGCTGTGG: the switch fluorescence ratio was determined as 0.979.

For the sequence TTATCACTAA, the switch fluorescence ratio worked out at 1.03.

On to GCAAGCATTA, for which the switch fluorescence ratio is 1.14.

With AAGGACAAGC, the switch fluorescence ratio worked out at 1.02.

For the sequence CAGGGGGTGA, the switch fluorescence ratio was 1.

Regarding AGGTGTTGCA, the switch fluorescence ratio worked out at 0.941.

Turning to CCTTTGGTGA, the switch fluorescence ratio was 1.05.

For the sequence ATGTTGCATC, the switch fluorescence ratio worked out at 1.03.

As for AGGTCCGTAT, the switch fluorescence ratio came to 1.03.

Consider GGCTCATGCG, for which the switch fluorescence ratio is 0.974.

As to ATCGAGGTGA, the switch fluorescence ratio turned out to be 1.03.

As for TTTTGTATAC, the switch fluorescence ratio was 1.01.

For the sequence GGGATATTGC, the switch fluorescence ratio was 1.03.

As for CGAGGCGGTT, the switch fluorescence ratio is 1.05.

Consider ACGTAGCCCG, for which the switch fluorescence ratio is 1.06.

As for CAGACAGTGC, the switch fluorescence ratio was determined as 1.14.

On to AAGGAGAAAG, for which the switch fluorescence ratio is 1.21.

For GTCTGTGAGT, the switch fluorescence ratio came out at 0.999.

GCCAAGGGGC: the switch fluorescence ratio came to 1.04.

On to ATGATATAGT, for which the switch fluorescence ratio was determined as 1.

As for CGATACAGGT, the switch fluorescence ratio came out at 1.14.

In the case of TTCCCAGGG, the switch fluorescence ratio came out at 1.92.

As to CATTTAGCGT, the switch fluorescence ratio is 0.95.

On to GGTTATGTAT, for which the switch fluorescence ratio was determined as 0.997.

Regarding GAGCATCCCG, the switch fluorescence ratio is 1.04.

With TTTACCGTG, the switch fluorescence ratio turned out to be 1.05.

With CCAACGATGG, the switch fluorescence ratio was 1.05.

Turning to GAGCAACGTG, the switch fluorescence ratio was found to be 1.07.

For TGCGGGTACA, the switch fluorescence ratio worked out at 1.04.

In the case of CTGAGTCCAA, the switch fluorescence ratio is 1.33.

Turning to TAGTCTCAGG, the switch fluorescence ratio is 1.02.

Regarding AGCCACTATT, the switch fluorescence ratio is 1.

For AATCGGCTA, the switch fluorescence ratio is 1.

As to AAGTCTGGA, the switch fluorescence ratio was found to be 0.998.

With CCGATTAGCG, the switch fluorescence ratio is 1.2.

As for ACAGATTCCA, the switch fluorescence ratio is 1.04.

Turning to ATGTGTATGC, the switch fluorescence ratio was found to be 1.

Take GACCCCGGTA: the switch fluorescence ratio came to 1.23.

Take AAACGCACAC: the switch fluorescence ratio amounted to 2.55.

Turning to CCTGCGGCCT, the switch fluorescence ratio came to 1.17.

As for AGTGATCGA, the switch fluorescence ratio worked out at 1.07.

With ATTTACTGTT, the switch fluorescence ratio worked out at 1.06.

Turning to CCCCGAGGA, the switch fluorescence ratio turned out to be 1.09.

As to GACTGCATCA, the switch fluorescence ratio came out at 1.08.

For the sequence GGATGGACTA, the switch fluorescence ratio came out at 0.989.

AGTGGATAAT: the switch fluorescence ratio was determined as 0.998.

With GCCGTCAGGG, the switch fluorescence ratio is 1.01.

On to TCGACACGTC, for which the switch fluorescence ratio was determined as 1.1.

On to CAGGGTGACC, for which the switch fluorescence ratio stood at 0.998.

Consider CACAAAATTT, for which the switch fluorescence ratio came out at 1.1.

As to TATAATTTTA, the switch fluorescence ratio amounted to 0.988.

As to AAAATTGTCG, the switch fluorescence ratio was found to be 1.04.

As to TTAGTGAGCA, the switch fluorescence ratio came to 0.982.

For the sequence GATATTAAAA, the switch fluorescence ratio is 1.04.

Consider CGCATTGTAA, for which the switch fluorescence ratio was found to be 1.1.

Consider GAGTTTCGT, for which the switch fluorescence ratio was determined as 1.02.

As to TTGATAGA, the switch fluorescence ratio stood at 1.03.

Consider ATGTATACTG, for which the switch fluorescence ratio was 1.

Consider TGCGGAATGA, for which the switch fluorescence ratio was 1.08.

Take AGCGACTTGC: the switch fluorescence ratio stood at 1.01.

Turning to TAGGATGAGC, the switch fluorescence ratio stood at 1.01.

Regarding CATGTCCCCC, the switch fluorescence ratio came to 0.998.

For CCGTCCTGGT, the switch fluorescence ratio stood at 0.995.

TGACTTGCCT: the switch fluorescence ratio is 0.979.

With GGATCTTGAG, the switch fluorescence ratio is 1.02.

GCGCACCGGT: the switch fluorescence ratio was determined as 0.96.

In the case of AGGTATAGCA, the switch fluorescence ratio was 1.02.

TTAATTCCAT: the switch fluorescence ratio was 0.992.

The values are drawn from the supplement of paper PMC10126150.
